The campaign covered roughly 310,000 compounds. About 2,200 (0.71%) showed an effect of 50% or more. Effects have a minus sign here. Some of the results follow.
Biological target: human ether-à-go-go-related gene (hERG) potassium channel (human, UniProt Q12809)
Assay: primary screen, population patch clamp on CHO cells stably expressing hERG

Chain of human ether-à-go-go-related gene (hERG) potassium channel (Q12809 whole entry, looked up): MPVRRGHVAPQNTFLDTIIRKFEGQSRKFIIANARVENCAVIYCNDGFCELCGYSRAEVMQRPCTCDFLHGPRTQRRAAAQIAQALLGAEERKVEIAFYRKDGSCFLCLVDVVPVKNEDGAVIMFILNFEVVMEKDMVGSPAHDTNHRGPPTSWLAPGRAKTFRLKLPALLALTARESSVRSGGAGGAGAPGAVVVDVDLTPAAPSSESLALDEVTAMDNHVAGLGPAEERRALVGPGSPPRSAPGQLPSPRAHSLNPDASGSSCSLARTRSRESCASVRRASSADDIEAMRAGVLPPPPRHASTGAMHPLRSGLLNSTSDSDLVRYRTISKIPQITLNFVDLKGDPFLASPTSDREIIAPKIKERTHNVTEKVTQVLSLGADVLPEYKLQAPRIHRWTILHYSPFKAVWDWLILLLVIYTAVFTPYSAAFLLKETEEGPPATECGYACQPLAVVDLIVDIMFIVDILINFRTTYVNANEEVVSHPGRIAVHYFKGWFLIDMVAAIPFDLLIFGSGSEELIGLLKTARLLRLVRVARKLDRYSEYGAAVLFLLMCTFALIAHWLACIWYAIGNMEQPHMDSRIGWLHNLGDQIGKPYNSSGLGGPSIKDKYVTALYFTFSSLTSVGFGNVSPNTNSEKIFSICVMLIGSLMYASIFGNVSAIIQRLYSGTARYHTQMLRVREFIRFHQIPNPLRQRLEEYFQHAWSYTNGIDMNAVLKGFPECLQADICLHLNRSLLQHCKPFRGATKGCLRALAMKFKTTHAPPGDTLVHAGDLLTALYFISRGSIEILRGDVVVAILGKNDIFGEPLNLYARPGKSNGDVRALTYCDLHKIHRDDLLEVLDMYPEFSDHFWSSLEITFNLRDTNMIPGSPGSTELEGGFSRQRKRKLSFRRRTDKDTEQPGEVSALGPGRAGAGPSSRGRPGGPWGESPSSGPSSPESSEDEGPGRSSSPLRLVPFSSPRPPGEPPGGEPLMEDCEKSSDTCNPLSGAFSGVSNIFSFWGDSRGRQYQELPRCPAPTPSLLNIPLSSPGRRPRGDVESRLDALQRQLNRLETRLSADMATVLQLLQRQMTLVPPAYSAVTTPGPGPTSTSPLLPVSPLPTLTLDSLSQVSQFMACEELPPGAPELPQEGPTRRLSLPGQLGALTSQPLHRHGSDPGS

Row | Compound | hERG current change (%, negative = inhibition) at 1uM [%]
1 | CC(=O)Nc1cc(C(C)(C)C)c(O)c(C(C)(C)C)c1 | 13.4
2 | CN(C)CCOC1c2ccccc2CCc2ccc3ccccc3c21.O=C(O)C(=O)O (centres unmarked) | 7.92
3 | Cc1ccc(S(=O)(=O)/N=C(/c2ccc(F)cc2)N2CCOCC2)cc1 | 8.13
4 | CC(=O)Nc1ccc(NC(=O)C2CCCN(C(=O)c3ccc(Cl)cc3)C2)cc1 (centres unmarked) | 10.9
5 | COc1ccc(S(=O)(=O)CCc2nnc(NC(C)=O)s2)cc1 | 18.7
6 | C=CCN1C(=O)c2ccccc2Sc2ccc(C(=O)N3CCN(C)CC3)cc21 | 9.34
7 | Cc1nn(-c2ccccc2)c(Cl)c1/C=C(\CC(=O)O)c1nc2ccccc2s1 | 2.95
8 | COc1ccc([C@@H]2CC=C(C(=O)O)CN2S(=O)(=O)c2ccc(C)cc2)cc1OC | 16.7
9 | Cc1nc(Nc2ccc(S(=O)(=O)N3CCCCC3C)cc2)c2nnn(Cc3ccccc3)c2n1 (centres unmarked) | 13.2
10 | COc1ccccc1N1CCN(C(=O)CCNC(=O)Cn2ccc3ccccc3c2=O)CC1 | 7.7
11 | Cc1cc(OCC(=O)Nc2ccncc2)ccc1Cl | 9.21
12 | O=P(Oc1ccccc1)(Oc1ccccc1)N1CCN(c2ccc(F)cc2)CC1 | 15.3
13 | CC(=O)N1CCC2(CC1)CC(=O)c1cc(OCC(=O)NCc3ccc(C)cc3)ccc1O2 | -8.11
14 | C/C(=N\NC(=S)NCc1ccccc1)c1ccccc1 | 7.41
15 | O=C(Nc1ccc(S(=O)(=O)NCC2CCCO2)cc1)c1ccccc1 (centres unmarked) | 11.2
16 | CC(Cc1ccccc1)C(=O)N(C)Cc1ccccc1 (centres unmarked) | 10.2
17 | CC1CCCC(C)N1C(=O)CSc1nc2c(c(=O)n(C)c(=O)n2C)n1C (centres unmarked) | 21.4
18 | CCN(CC)S(=O)(=O)c1ccc(C)c(NC(=O)c2cc(C)oc2C)c1 | 9.88
19 | Cl.N=c1c[n+](C2CCCCC2)[n-]o1 | 8.49

Row | Compound | hERG current change (%, negative = inhibition) at 1uM [%]
20 | COc1ccccc1NC(=S)N(CCc1nc2cc(C)c(C)cc2[nH]1)Cc1cccnc1 | 2.58
21 | CCN(CC)Cc1c(C(=O)N/N=C/c2cccc3ccccc23)nnn1-c1nonc1N | 12.7
22 | CC1(C)Cc2c(sc(NC(=O)COc3ccc(Cl)cc3Cl)c2C(N)=O)C(C)(C)N1 | 14.1
23 | O=C(CN1C(=O)NC2(CCCC2)C1=O)OCCOc1ccc(Cl)cc1Cl | 4.72
24 | O=[N+]([O-])c1ccc(N/N=C/c2cccc(O)c2O)cc1 | 9.15
25 | O=C(CNC(=O)c1sc2ccccc2c1Cl)NCc1cccc(C(F)(F)F)c1 | 2.56
26 | CCOC(=O)C(C)c1ccc2cc(OC)ccc2c1 (centres unmarked) | 5.65
27 | CCN1CCN(c2ccc(NC(=O)Cc3ccccc3)cc2)CC1 | -9.29
28 | CCOc1ccc(S(=O)(=O)N2CCN(c3ncccn3)CC2)cc1 | 15.2
29 | CC(C)=CC(=O)N1CCC(N2CCC(C(=O)NCC3CCCO3)CC2)CC1 (centres unmarked) | 14.9
30 | COc1cc(/C=C/C(=O)O)ccc1OS(=O)(=O)c1c(C)cc(C)cc1C | -10.7
31 | O=C(C[N+]12CCC(CC1)C(CO)C2)c1ccc(Br)cc1.[Br-] (centres unmarked) | 0.666
32 | Cc1c(NC(=S)N/N=C/c2ccc(N(C)C)cc2)c(=O)n(-c2ccccc2)n1C | 18.1
33 | CN(C(=O)Cc1c(C(=O)O)n(C)c2ccccc12)c1ccc(Cl)cc1 | 15.7
34 | CC(=O)Nc1ccc(OCC(=O)N2CCC(Cc3ccccc3)CC2)cc1 | -3.3
35 | O=C(CSc1nnc2n1CCCN2)c1ccc(Cl)cc1 | -1.26
36 | CCOc1ccc2oc(C(=O)Nc3cc(C)ccn3)c(C)c2c1 | 11.9
37 | COc1ccc(NC(=O)N(CCCN2CCOCC2)Cc2cccnc2)c(OC)c1 | 6.25
38 | O=C(CCNC(=O)c1ccco1)NCCc1ccc(Cl)cc1 | 8.43

Row | Compound | hERG current change (%, negative = inhibition) at 1uM [%]
39 | CCC1CN(C(=O)N2CCC(C(=O)NCc3cccc(F)c3)CC2)c2ccccc2O1 (centres unmarked) | 6.6
40 | Cc1ccc(C)c(OCC(=O)N/N=C\c2cccn2C)c1 | 14.7
41 | CCOc1cnn(-c2ccccc2)c(=O)c1Cl | 9.25
42 | CN(C)CCCNC(=O)C1(O)c2cc(Br)ccc2NC(=O)N1c1ccc(Cl)cc1 (centres unmarked) | 10.4
43 | O=C1Nc2ccccc2/C1=N/N=C/c1cccc(O)c1 | 11.5
44 | Cc1cc2oc(=O)cc(COC(=O)c3n[nH]c4ccccc34)c2cc1C | 7.84
45 | O=C(COc1ccc(Br)cc1Cl)NC(=O)NC1CCCC1 | 10.2
46 | COc1ccc(OC)c(S(=O)(=O)N2CCC(C(=O)NCc3ccccc3OC)CC2)c1 | 3.09
47 | O=C(NC1CC1)c1cc2c(s1)-c1ccccc1OC2 | 10.2
48 | COC(=O)C(CSCc1ccccc1)NC(=O)CSc1nc(N)cc(=O)[nH]1 (centres unmarked) | 20.8
49 | Cc1cc(C)c2[nH]c(=O)c(C(c3nnnn3Cc3ccc4c(c3)OCO4)N3CCCCC3)cc2c1 (centres unmarked) | 17.4
50 | CC1CN(c2nc3c(c(=O)n(Cc4ccc(Cl)cc4)c(=O)n3C)n2C)CC(C)O1 (centres unmarked) | -0.562
51 | CCOC(=O)c1ccc(NC(=S)N2CCSC2c2ccc(Br)cc2)cc1 (centres unmarked) | 12.7
52 | CSc1sc(C(=O)N2CCCCC2)c(-c2cccs2)c1C#N | 7.03
53 | O=[N+]([O-])c1cccnc1N1CCC(c2cc(-c3ccc(Cl)cc3Cl)n[nH]2)CC1 | -5.66
54 | Cc1cc(C)c(S(=O)(=O)O)c(C)n1 | 10.9
55 | CNC(=O)CSc1nnc(COc2ccc(Cl)cc2)n1CCOC | 2.07
56 | COc1ccc(Nc2ncnc3sccc23)c(OC)c1 | 21
